# Test results taken from PubChem BioAssay (EPA / NIEHS).
# Results filed as inconclusive are left out. How the source made its calls, unless noted: active means hit-call score of the fitted dose curve at least 0.9, where 1 is the maximum; inconclusive means response in the unintended direction; inactive means score below 0.9. For part of its entries the source gives two or more results. Only these are listed. There may be further records. Values that stand side by side repeat one measurement (runs, samples, wells, individuals or studies). More than one record can exist for a structure, and the calls need not agree. Marks such as (2×) stand for listed records that agree.
# Legend:
# [1] = ATG_E_Box_CIS: Attagene CIS-FACTORIAL HepG2 Assay for human Enhancer Box (E-box) (AID 2282936; active means hit-call score of the fitted dose curve at least 0.9, where 1 is the maximum; inactive means score below 0.9); conditions: HepG2 E-box cis-reporter transcription, actives raise or lower the signal
# Procedure, shortened: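 HepG2 cells transiently transfected with multiplexed cis-element reporter units, dosed 24 h; reporter mRNA quantified by RT-PCR, 6-FAM labelling, HpaI digestion and capillary electrophoresis. E-box (USF1) signal fitted bidirectionally vs DMSO.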
# [2] = ATG_MRE_CIS: Attagene CIS-FACTORIAL HepG2 Assay for human Metal Responsive Element (MRE) (AID 2282954; active means hit-call score of the fitted dose curve at least 0.9, where 1 is the maximum; inactive means score below 0.9); conditions: HepG2 MRE cis-reporter transcription, Attagene multiplex; actives raise or lower the signal
# Procedure, shortened: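 HepG2 cells transiently transfected with cis-element-driven reporter units; mRNA measured 24 h after dosing. Reporter transcripts quantified by RT-PCR, FAM labelling, HpaI digestion and capillary electrophoresis; bidirectional fit versus DMSO.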
# [3] = molecular target: X-box-binding protein 1 (Homo sapiens) (UniProt P17861); experiment: ATG_Xbp1_CIS: Attagene CIS-FACTORIAL HepG2 Assay for human X-box Binding Protein 1 (XBP1) (AID 2282972; active means hit-call score of the fitted dose curve at least 0.9, where 1 is the maximum; inactive means score below 0.9); conditions: HepG2 XBP1 cis-element reporter, Attagene multiplex; actives raise or lower the signal
# Chain of UniProt P17861 (P17861 whole entry, looked up): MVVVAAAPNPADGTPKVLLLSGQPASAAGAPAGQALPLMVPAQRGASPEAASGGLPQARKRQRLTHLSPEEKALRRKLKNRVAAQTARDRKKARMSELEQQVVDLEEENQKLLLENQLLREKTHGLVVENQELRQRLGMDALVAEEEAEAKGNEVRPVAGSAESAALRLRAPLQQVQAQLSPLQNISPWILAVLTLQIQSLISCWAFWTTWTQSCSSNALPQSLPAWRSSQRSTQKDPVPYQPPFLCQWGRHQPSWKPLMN
# Procedure, shortened: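 HepG2 cells transiently transfected with multiple cis-element reporter units report endogenous TF activity; 24 h exposure, then reporter mRNA measured by RT-PCR, 6-FAM labelling, HpaI digestion and capillary electrophoresis. Bidirectional fitting versus DMSO.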
# [4] = ATG_NRF2_ARE_CIS: Attagene CIS-FACTORIAL HepG2 Assay for human Nuclear Factor Erythroid 2 Related Factor 2 (NFR2) response to Antioxidant Response Elements (ARE) (AID 2282992; active means hit-call score of the fitted dose curve at least 0.9, where 1 is the maximum; inactive means score below 0.9;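 further: reporter mRNA level measured by RT-PCR and capillary electrophoresis fluorescence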); conditions: HepG2 Attagene ARE/NRF2 reporter, transcription factor activity; actives raise or lower the signal
# Procedure, shortened: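 HepG2 cells transiently transfected with multiplexed cis-element reporter constructs, 24 h after chemical dosing; reporter mRNA quantified by RT-PCR, fluorescent primer extension, HpaI digestion and capillary electrophoresis. Bidirectional fit relative to DMSO.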
# [5] = ATG_Oct_MLP_CIS: Attagene CIS-FACTORIAL HepG2 Assay for human Octamer-Binding Transcription Factor (Oct) (AID 2282993; active means hit-call score of the fitted dose curve at least 0.9, where 1 is the maximum; inactive means score below 0.9); conditions: HepG2 Attagene cis-factorial Oct reporter, mRNA; actives raise or lower the signal
# Procedure, shortened: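 HepG2 cells transiently transfected with cis-promoter-driven multiplexed reporter transcription units, dosed for 24 h. Reporter mRNA quantified by RT-PCR, fluorescent labelling, HpaI digestion and capillary electrophoresis; bidirectional fits versus DMSO baseline.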
# [6] = molecular target: Peroxisome proliferator-activated receptor gamma (Homo sapiens) (UniProt P37231); experiment: ATG_PPARg_TRANS: Attagene TRANS-FACTORIAL HepG2 Assay for human Peroxisome Proliferator-activated Receptor-gamma (PPARg) (AID 2283007)
# Chain of UniProt P37231 (P37231 whole entry, looked up, the tested form may be a part): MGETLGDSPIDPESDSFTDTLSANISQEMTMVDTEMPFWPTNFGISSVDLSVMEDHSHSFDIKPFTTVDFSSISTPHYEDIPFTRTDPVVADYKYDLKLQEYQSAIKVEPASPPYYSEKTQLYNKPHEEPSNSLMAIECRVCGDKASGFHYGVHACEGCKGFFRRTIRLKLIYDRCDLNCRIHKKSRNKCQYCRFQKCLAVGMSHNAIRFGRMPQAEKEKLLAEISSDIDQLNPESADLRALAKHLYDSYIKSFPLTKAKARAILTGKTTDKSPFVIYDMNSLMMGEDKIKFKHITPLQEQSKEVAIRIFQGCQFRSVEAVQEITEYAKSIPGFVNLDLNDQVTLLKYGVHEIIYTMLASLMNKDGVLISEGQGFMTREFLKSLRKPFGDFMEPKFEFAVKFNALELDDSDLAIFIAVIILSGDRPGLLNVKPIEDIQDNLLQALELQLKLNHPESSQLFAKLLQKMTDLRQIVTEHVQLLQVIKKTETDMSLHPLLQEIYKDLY
# Procedure, shortened: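 HepG2 cells are transiently transfected with GAL4-UAS reporter units driven by chimeric NR-Gal4 fusions and dosed for 24 h. Reporter mRNA is quantified by RT-PCR, 6-FAM labelling, HpaI digestion and capillary electrophoresis. Induction is scored against DMSO.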
# [7] = BSK_SAg_Proliferation: Cell Proliferation Assessment in the BioMAP Diversity Plus: SAg Assay (AID 2283095; active means hit-call score of the fitted dose curve at least 0.9, where 1 is the maximum; inactive means score below 0.9); conditions: primary human HUVEC with PBMC
# Procedure, shortened: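 Human umbilical vein endothelial cells co-cultured with PBMC; sulforhodamine B total-protein staining (0.1% SRB after 10% TCA fixation, absorbance 560 nm) at 96 h in sub-confluent culture. Fitted bidirectionally against DMSO.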
# [8] = molecular target: Cytochrome P450 2C19 (Homo sapiens) (UniProt P33261); experiment: NVS_ADME_hCYP2C19: NovaScreen (NVS) CYP450-related Enzyme Activity (ADME) Assay for human CYP2C19 (AID 2283113);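 further: potency for inhibition seen as loss of fluorescent signal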
# Chain of UniProt P33261 (P33261 whole entry, looked up): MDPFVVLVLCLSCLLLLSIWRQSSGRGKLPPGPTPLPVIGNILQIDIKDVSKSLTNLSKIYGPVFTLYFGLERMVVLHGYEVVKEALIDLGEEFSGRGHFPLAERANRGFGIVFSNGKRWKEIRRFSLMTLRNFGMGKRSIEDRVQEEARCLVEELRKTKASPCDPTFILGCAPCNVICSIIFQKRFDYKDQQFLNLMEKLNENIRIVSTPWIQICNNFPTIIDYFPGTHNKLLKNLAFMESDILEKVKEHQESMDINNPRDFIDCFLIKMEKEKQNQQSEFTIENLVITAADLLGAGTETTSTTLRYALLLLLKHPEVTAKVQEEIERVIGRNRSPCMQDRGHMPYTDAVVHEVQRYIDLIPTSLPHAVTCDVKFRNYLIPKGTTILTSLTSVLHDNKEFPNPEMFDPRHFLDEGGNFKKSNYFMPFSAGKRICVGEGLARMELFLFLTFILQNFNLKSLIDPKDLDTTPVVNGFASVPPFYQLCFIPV
# Procedure, shortened: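 Cell-free recombinant human CYP2C19 from insect cells, fluorescent substrate; activity read by fluorescence intensity 1 h after dosing. Primary screen in duplicate at 10 uM; actives retested in concentration series. Signal loss versus acetonitrile negative control.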
# [9] = molecular target: human Caspase 5 (CASP5), CASP5 (gene 838) (UniProt P51878); experiment: NVS_ENZ_hCASP5: NovaScreen (NVS) Enzymatic Assay for human Caspase 5 (CASP5) (AID 2283137)
# Chain of UniProt P51878 (P51878 whole entry, looked up): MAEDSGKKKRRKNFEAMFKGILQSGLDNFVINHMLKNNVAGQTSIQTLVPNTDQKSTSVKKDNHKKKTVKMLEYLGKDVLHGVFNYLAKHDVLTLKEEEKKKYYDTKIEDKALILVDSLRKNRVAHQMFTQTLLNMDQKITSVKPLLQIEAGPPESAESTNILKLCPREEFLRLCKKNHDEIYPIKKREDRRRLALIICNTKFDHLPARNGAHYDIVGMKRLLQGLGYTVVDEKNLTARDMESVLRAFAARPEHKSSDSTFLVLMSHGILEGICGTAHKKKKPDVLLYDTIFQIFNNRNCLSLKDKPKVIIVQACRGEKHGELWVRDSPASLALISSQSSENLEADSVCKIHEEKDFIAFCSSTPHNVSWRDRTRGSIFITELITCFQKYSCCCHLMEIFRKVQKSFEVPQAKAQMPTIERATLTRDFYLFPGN
# Procedure, shortened: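 Recombinant human caspase 5 expressed in E. coli, fluorogenic substrate, fluorescence read 2 h after dosing. Single-point 25 uM duplicate screen, then concentration-response to maximum 50 uM for actives; DMSO baseline.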
# [10] = molecular target: human Dual Specificity Protein Phosphatase 3 (DUSP3), DUSP3 (gene 1845) (UniProt P51452); experiment: NVS_ENZ_hDUSP3: NovaScreen (NVS) Enzymatic Assay for human Dual Specificity Protein Phosphatase 3 (DUSP3) (AID 2283152);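 further: phosphatase activity of recombinant human DUSP3 on a fluorogenic substrate without cells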
# Chain of UniProt P51452 (P51452 whole entry, looked up): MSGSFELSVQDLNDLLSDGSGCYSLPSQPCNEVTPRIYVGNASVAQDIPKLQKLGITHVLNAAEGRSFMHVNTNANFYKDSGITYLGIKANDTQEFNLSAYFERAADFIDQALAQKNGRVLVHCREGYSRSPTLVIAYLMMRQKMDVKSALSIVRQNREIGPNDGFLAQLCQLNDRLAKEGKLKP
# Procedure, shortened: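 Cell-free assay with recombinant human DUSP3 and fluorogenic substrate, read by fluorescence intensity. Primary screen ran duplicate at 25 uM; actives followed up in concentration series; loss of signal versus DMSO scored.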
# [11] = molecular target: human Elastase, ELANE (gene 1991) (UniProt P08246); experiment: NVS_ENZ_hElastase: NovaScreen (NVS) Enzymatic Assay for human Elastase (AID 2283153)
# Chain of UniProt P08246 (P08246 whole entry, looked up): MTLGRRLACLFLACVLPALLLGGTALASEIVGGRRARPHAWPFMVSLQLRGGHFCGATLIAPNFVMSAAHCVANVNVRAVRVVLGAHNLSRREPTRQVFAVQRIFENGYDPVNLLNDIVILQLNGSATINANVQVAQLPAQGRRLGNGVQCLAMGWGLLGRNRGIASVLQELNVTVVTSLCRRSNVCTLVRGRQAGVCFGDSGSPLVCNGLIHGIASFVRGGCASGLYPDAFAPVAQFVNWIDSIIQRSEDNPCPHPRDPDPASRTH
# Procedure, shortened: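 Cell-free elastase from human neutrophils, 1.5 h after dosing, activity read by absorbance. Primary screen in duplicate at 25 uM; hits (e.g., 30% inhibition) rerun in singleton concentration-response up to 50 uM, fitted versus DMSO.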
# [12] = molecular target: human Protein Tyrosine Phosphatase Receptor Type M (PTPRM), PTPRM (gene 5797) (UniProt P28827); experiment: NVS_ENZ_hPTPRM: NovaScreen (NVS) Enzymatic Assay for human Protein Tyrosine Phosphatase Receptor Type M (PTPRM) (AID 2283215)
# Chain of UniProt P28827 (P28827 whole entry, looked up): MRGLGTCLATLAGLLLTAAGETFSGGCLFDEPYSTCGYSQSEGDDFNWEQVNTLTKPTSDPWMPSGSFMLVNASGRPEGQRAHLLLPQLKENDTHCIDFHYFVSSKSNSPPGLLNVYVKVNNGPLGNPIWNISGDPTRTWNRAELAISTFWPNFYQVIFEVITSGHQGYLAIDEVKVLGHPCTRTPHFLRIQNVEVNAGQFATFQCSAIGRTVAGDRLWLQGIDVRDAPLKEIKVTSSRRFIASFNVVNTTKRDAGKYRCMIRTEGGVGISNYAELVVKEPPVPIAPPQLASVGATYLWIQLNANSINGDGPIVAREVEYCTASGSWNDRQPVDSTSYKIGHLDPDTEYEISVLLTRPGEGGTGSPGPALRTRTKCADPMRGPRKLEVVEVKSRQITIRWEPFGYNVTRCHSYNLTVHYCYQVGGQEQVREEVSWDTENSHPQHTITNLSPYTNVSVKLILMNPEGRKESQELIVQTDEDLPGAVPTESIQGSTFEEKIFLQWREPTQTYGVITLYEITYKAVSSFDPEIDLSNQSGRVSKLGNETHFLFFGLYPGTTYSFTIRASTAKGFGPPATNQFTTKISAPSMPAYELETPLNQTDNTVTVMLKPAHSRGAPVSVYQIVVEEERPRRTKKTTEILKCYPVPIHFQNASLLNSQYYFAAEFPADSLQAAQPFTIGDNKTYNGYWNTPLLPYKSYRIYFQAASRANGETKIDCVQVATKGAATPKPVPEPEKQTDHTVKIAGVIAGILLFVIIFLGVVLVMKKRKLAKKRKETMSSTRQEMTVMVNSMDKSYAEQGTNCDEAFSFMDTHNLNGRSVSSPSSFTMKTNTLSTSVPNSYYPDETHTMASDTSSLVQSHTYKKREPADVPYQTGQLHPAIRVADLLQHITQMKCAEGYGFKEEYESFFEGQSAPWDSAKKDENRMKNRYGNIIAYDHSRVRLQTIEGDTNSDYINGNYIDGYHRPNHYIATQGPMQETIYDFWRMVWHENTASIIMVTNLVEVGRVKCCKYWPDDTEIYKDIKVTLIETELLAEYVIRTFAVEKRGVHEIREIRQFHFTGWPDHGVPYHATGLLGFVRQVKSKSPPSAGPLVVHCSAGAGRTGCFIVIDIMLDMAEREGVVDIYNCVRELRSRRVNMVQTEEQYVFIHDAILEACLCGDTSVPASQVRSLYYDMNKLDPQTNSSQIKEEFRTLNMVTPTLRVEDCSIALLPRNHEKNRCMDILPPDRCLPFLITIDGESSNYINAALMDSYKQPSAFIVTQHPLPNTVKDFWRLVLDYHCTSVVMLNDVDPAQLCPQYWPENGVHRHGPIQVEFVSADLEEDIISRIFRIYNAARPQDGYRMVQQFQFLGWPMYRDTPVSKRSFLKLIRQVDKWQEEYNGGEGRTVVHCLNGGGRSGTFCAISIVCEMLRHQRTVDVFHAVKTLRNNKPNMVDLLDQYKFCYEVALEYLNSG
# Procedure, shortened: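 Cell-free recombinant PTPRM with fluorogenic substrate; product separated from substrate by electrophoretic mobility shift and read by fluorescence, 1.33 h after dosing. Primary screen single concentration (25 uM) in duplicate; actives retested in concentration series; loss of signal versus DMSO.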
# [13] = molecular target: human Neuropeptide Receptor Y1 (NPY1), NPY1R (gene 4886) (UniProt P25929); experiment: NVS_GPCR_hNPY1: NovaScreen (NVS) G Protein-Coupled Receptor Assay for human Neuropeptide Receptor Y1 (NPY1) (AID 2283276)
# Chain of UniProt P25929 (P25929 whole entry, looked up): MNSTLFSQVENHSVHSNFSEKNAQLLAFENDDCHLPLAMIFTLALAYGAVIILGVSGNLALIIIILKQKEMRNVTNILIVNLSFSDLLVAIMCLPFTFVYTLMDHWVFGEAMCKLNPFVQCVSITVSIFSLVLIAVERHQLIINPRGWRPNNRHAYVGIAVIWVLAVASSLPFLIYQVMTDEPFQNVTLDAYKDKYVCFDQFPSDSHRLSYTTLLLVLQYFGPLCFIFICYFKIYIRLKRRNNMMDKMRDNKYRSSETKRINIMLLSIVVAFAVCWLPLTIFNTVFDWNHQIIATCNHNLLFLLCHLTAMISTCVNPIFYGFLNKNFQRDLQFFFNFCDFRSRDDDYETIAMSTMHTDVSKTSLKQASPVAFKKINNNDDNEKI
# Procedure, shortened: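 Cell-free radioligand binding using receptor extracted from SK-N-MC cells, 1 h incubation, filter-based scintillation counting. Primary screen single concentration 25 uM in duplicate; actives followed in concentration series. Loss of bound signal scored versus DMSO.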
# [14] = molecular target: human Orphanin, Opioid Related Nociceptin Receptor 1 (ORL1), OPRL1 (gene 4987) (UniProt P41146); experiment: NVS_GPCR_hORL1: NovaScreen (NVS) G Protein-Coupled Receptor Assay for human Orphanin, Opioid Related Nociceptin Receptor 1 (ORL1) (AID 2283283)
# Chain of UniProt P41146 (P41146 whole entry, looked up): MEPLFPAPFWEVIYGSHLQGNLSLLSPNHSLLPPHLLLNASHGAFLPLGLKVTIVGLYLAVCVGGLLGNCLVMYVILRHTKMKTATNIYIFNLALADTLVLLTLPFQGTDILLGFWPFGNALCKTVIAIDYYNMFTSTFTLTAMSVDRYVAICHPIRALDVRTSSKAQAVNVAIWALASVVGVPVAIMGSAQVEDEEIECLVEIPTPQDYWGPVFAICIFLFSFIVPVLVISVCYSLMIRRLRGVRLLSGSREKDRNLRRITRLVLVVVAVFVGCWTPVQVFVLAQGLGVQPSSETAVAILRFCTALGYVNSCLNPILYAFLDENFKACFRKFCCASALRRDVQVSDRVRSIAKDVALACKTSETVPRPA
# Procedure, shortened: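 Filter-based radioligand displacement with receptor extracted from HEK293 cells, read 1 hour after dosing by scintillation counting. Duplicate single-point screen at 25 uM; qualifying chemicals then run in concentration-response to 50 uM, analysed relative to DMSO.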
# [15] = molecular target: rat Neurokinin-3 Receptor (NK3), Tacr3 (gene 24808) (UniProt P16177); experiment: NVS_GPCR_rNK3: NovaScreen (NVS) G Protein-Coupled Receptor Assay for rat Neurokinin-3 Receptor (NK3) (AID 2283310)
# Chain of UniProt P16177 (P16177 whole entry, looked up): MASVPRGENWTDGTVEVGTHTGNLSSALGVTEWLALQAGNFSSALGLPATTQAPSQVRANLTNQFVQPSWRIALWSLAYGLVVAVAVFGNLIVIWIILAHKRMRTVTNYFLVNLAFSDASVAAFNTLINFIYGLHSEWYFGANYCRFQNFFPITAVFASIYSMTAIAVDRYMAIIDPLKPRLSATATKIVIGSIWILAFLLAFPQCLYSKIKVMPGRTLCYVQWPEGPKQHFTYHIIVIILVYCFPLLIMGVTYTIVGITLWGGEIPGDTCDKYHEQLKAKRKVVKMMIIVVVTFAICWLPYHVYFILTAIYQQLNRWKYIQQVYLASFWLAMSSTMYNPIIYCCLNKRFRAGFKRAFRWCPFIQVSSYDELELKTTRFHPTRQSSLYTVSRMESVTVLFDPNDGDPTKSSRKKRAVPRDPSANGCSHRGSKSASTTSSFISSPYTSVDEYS
# Procedure, shortened: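 Rat cortical membranes; radioligand binding with filtration and scintillation counting, 2 h after dosing. Primary screen in duplicate at 25 uM, then concentration-response up to 50 uM; loss of binding signal relative to DMSO.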
# [16] = CCTE_Simmons_CellTiterGLO_HEK293T: Viability Assessment in CCTE's Assays for Thyroperoxidase (TPO) Inhibition, Simmons Lab (AID 2283665);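 further: cells exposed to compound for 24 h before readout; actives reduce ATP signal below DMSO vehicle meaning cytotoxicity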
# Procedure, shortened: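 HEK293T cells in DMEM with 1% FBS, dosed 24 h at 37C with 8 concentrations, 5 nM–87.5 uM final, 0.5% DMSO. ATP measured by CellTiter Glo luminescence; loss of signal vs DMSO, three biological replicates.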
smiles,measurement,setting,value
S=C(S)NCCNC(=S)S.[Mn+2].[S-]C([S-])=NCCN=C([S-])[S-].[Zn+2],AC50,[1],"active: 635 nM, 1.76 µM, 713 nM, 487 nM [separate samples]"
same,AC50,[2],"active: 12.3, 50, 22.4, 28.7 µM [separate samples]"
same,AC50,[3],"active: 447 nM, 1.88 µM, 2.05 µM, 9.71 µM, 979 nM [separate samples]"
same,AC50,[4],"active: 13.7, 5.33, 3.64, 8.8, 9.92 µM [separate samples]"
same,AC50,[5],"active: 410 nM, 1.19 µM, 3.9 µM, 583 nM [separate samples]"
same,AC50,[6],"active: 15.3, 14.2, 50, 22.9 µM [separate samples]"
same,AC50,[7],"active: 2.5, 6.57, 6.63, 3.21, 25.3 µM [separate samples]"
same,AC50,[8],"active: 990 nM, 2.65 µM, 2.79 µM, 2.42 µM, 2.32 µM, 3.49 µM, 6.82 µM [separate samples]"
same,AC50,[9],"active: 5.28 µM, 4.59 µM, 4.75 µM, 883 nM, 2.29 µM, 1.51 µM, 4.14 µM [separate samples]"
same,AC50,[10],"active: 1.4 µM, 5.62 µM, 12.5 µM, 3.3 µM, 7.09 µM, 4.32 µM, 19.8 nM [separate samples]"
same,AC50,[11],"active: 2.6, 3.49, 10.5, 2.87, 1.62, 6.84 µM [separate samples]"
same,AC50,[12],"active: 3.57 µM, 845 nM, 5.28 µM, 10.1 µM [separate samples]"
same,AC50,[13],"active: 4.59, 4.75, 4.16, 13 µM [separate samples]"
same,AC50,[14],"active: 513 nM, 163 nM, 6.42 µM, 617 nM, 12.5 µM, 8.53 µM, 2.23 µM [separate samples]"
same,AC50,[15],"active: 3.6, 5.29, 7.18, 3.7 (2×), 25 µM [separate samples]"
same,AC50,[16],"active: 21.9, 31.4, 2.48, 41.7, 41.8 µM [separate samples]"
